The values below come from PMC9911399, “Two distinct binding modes provide the RNA-binding protein RbFox with extraordinary sequence specificity”.

Numbering of substitutions follows the chain as printed; changes in the protein carry UniProt numbers. The list shows a part of the results.

The chains are these.
T1: RBFOX1 RRM RbFoxmut (Fox-RRM*) (Homo sapiens, UniProt Q9NWB1 109-208, R118D;E147R;N151S;E152T)
T1 sequence: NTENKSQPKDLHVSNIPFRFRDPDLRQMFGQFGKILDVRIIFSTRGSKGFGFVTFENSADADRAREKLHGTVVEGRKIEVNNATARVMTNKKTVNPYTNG

B1: GGAACAC (DNA:RNA)
RNA: GGGAGACCGGAAUUCAGAUUGUCCGGAACACUUAAAUCCCGUCGUAGCCACCA
DNA 1: CAATCTGAATTCCGGTCTCCC
DNA 2: TGGTGGCTACGACGGGATT
B2: AAUGCGA (DNA:RNA)
RNA: B1 RNA with G25A, G26A, A27U, A28G, A30G, C31A
DNA 1: CAATCTGAATTCCGGTCTCCC
DNA 2: TGGTGGCTACGACGGGATT
B3: AACUAGC (DNA:RNA)
RNA: B1 RNA with G25A, G26A, A27C, A28U, C29A, A30G
DNA 1: CAATCTGAATTCCGGTCTCCC
DNA 2: TGGTGGCTACGACGGGATT
B4: GUGAUAU (DNA:RNA)
RNA: B1 RNA with G26U, A27G, C29U, C31U
DNA 1: CAATCTGAATTCCGGTCTCCC
DNA 2: TGGTGGCTACGACGGGATT
B5: CCGAAAG (DNA:RNA)
RNA: B1 RNA with G25C, G26C, A27G, C29A, C31G
DNA 1: CAATCTGAATTCCGGTCTCCC
DNA 2: TGGTGGCTACGACGGGATT
B6: AUAGUGA (DNA:RNA)
RNA: B1 RNA with G25A, G26U, A28G, C29U, A30G, C31A
DNA 1: CAATCTGAATTCCGGTCTCCC
DNA 2: TGGTGGCTACGACGGGATT
B7: CUUCACU (DNA:RNA)
RNA: GGGAGACCGGAAUUCAGAUUGUCCCUUCACUUUAAAUCCCGUCGUAGCCACCA
DNA 1: CAATCTGAATTCCGGTCTCCC
DNA 2: TGGTGGCTACGACGGGATT
B8: UGUGACC (DNA:RNA)
RNA: B7 RNA with C25U, U26G, C28G, U31C
DNA 1: CAATCTGAATTCCGGTCTCCC
DNA 2: TGGTGGCTACGACGGGATT
B9: GUCGGAA (DNA:RNA)
RNA: B1 RNA with G26U, A27C, A28G, C29G, C31A
DNA 1: CAATCTGAATTCCGGTCTCCC
DNA 2: TGGTGGCTACGACGGGATT
B10: AAAAUAU (DNA:RNA)
RNA: B1 RNA with G25A, G26A, C29U, C31U
DNA 1: CAATCTGAATTCCGGTCTCCC
DNA 2: TGGTGGCTACGACGGGATT
B11: UCUGUCA (DNA:RNA)
RNA: B7 RNA with C25U, U26C, C28G, A29U, U31A
DNA 1: CAATCTGAATTCCGGTCTCCC
DNA 2: TGGTGGCTACGACGGGATT
B12: AGGGCUA (DNA:RNA)
RNA: B1 RNA with G25A, A27G, A28G, A30U, C31A
DNA 1: CAATCTGAATTCCGGTCTCCC
DNA 2: TGGTGGCTACGACGGGATT
B13: GGUCUAG (DNA:RNA)
RNA: B1 RNA with A27U, A28C, C29U, C31G
DNA 1: CAATCTGAATTCCGGTCTCCC
DNA 2: TGGTGGCTACGACGGGATT
B14: AACCCUC (DNA:RNA)
RNA: B1 RNA with G25A, G26A, A27C, A28C, A30U
DNA 1: CAATCTGAATTCCGGTCTCCC
DNA 2: TGGTGGCTACGACGGGATT
B15: AGUAUCC (DNA:RNA)
RNA: B1 RNA with G25A, A27U, C29U, A30C
DNA 1: CAATCTGAATTCCGGTCTCCC
DNA 2: TGGTGGCTACGACGGGATT
B16: UUGGGGC (DNA:RNA)
RNA: B7 RNA with C25U, U27G, C28G, A29G, C30G, U31C
DNA 1: CAATCTGAATTCCGGTCTCCC
DNA 2: TGGTGGCTACGACGGGATT
B17: UAAGCGC (DNA:RNA)
RNA: B1 RNA with G25U, G26A, A28G, A30G
DNA 1: CAATCTGAATTCCGGTCTCCC
DNA 2: TGGTGGCTACGACGGGATT
B18: UUACAGA (DNA:RNA)
RNA: B7 RNA with C25U, U27A, C30G, U31A
DNA 1: CAATCTGAATTCCGGTCTCCC
DNA 2: TGGTGGCTACGACGGGATT
B19: UCAGCAU (DNA:RNA)
RNA: B1 RNA with G25U, G26C, A28G, C31U
DNA 1: CAATCTGAATTCCGGTCTCCC
DNA 2: TGGTGGCTACGACGGGATT
B20: CAACAAA (DNA:RNA)
RNA: B7 RNA with U26A, U27A, C30A, U31A
DNA 1: CAATCTGAATTCCGGTCTCCC
DNA 2: TGGTGGCTACGACGGGATT
B21: AGUAUAA (DNA:RNA)
RNA: B1 RNA with G25A, A27U, C29U, C31A
DNA 1: CAATCTGAATTCCGGTCTCCC
DNA 2: TGGTGGCTACGACGGGATT
B22: AACACCU (DNA:RNA)
RNA: B7 RNA with C25A, U26A, U27C, C28A, A29C
DNA 1: CAATCTGAATTCCGGTCTCCC
DNA 2: TGGTGGCTACGACGGGATT
B23: UUGAUGA (DNA:RNA)
RNA: B7 RNA with C25U, U27G, C28A, A29U, C30G, U31A
DNA 1: CAATCTGAATTCCGGTCTCCC
DNA 2: TGGTGGCTACGACGGGATT
B24: CGUCCAU (DNA:RNA)
RNA: B7 RNA with U26G, A29C, C30A
DNA 1: CAATCTGAATTCCGGTCTCCC
DNA 2: TGGTGGCTACGACGGGATT
B25: AUACUUA (DNA:RNA)
RNA: B7 RNA with C25A, U27A, A29U, C30U, U31A
DNA 1: CAATCTGAATTCCGGTCTCCC
DNA 2: TGGTGGCTACGACGGGATT
B26: CACGAGG (DNA:RNA)
RNA: B7 RNA with U26A, U27C, C28G, C30G, U31G
DNA 1: CAATCTGAATTCCGGTCTCCC
DNA 2: TGGTGGCTACGACGGGATT
B27: UUGUCUU (DNA:RNA)
RNA: B7 RNA with C25U, U27G, C28U, A29C, C30U
DNA 1: CAATCTGAATTCCGGTCTCCC
DNA 2: TGGTGGCTACGACGGGATT
B28: CAUCGCC (DNA:RNA)
RNA: B7 RNA with U26A, A29G, U31C
DNA 1: CAATCTGAATTCCGGTCTCCC
DNA 2: TGGTGGCTACGACGGGATT
B29: UUGUAGC (DNA:RNA)
RNA: B7 RNA with C25U, U27G, C28U, C30G, U31C
DNA 1: CAATCTGAATTCCGGTCTCCC
DNA 2: TGGTGGCTACGACGGGATT
B30: UUAUCUA (DNA:RNA)
RNA: B1 RNA with G25U, G26U, A28U, A30U, C31A
DNA 1: CAATCTGAATTCCGGTCTCCC
DNA 2: TGGTGGCTACGACGGGATT
B31: AAUGAUU (DNA:RNA)
RNA: B7 RNA with C25A, U26A, C28G, C30U
DNA 1: CAATCTGAATTCCGGTCTCCC
DNA 2: TGGTGGCTACGACGGGATT

This experiment deals with T1, RBFOX1 RRM RbFoxmut (Fox-RRM*). In words: EMSA; HiTS-Eq, 1 nM pool, 10 min; buffer printed only for the single-RNA assays: 10 mM Tris pH 7.5, 150 mM NaCl, 3.4 mM EDTA, 0.001% NP-40, 30 C. The note with it: tags: His6 N-terminal (pET28a); label: 5' 32P. An outline of the steps: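 Relative association constants, normalised to the cognate motif, were derived by comparing read counts of each RNA species with those of the control reaction. The RNA sequenced was the free fraction, separated by 8% native PAGE after a 10 min equilibration in 50 µL of 1 nM 5′-radiolabelled RNA (7 randomized nucleotides) with increasing concentrations of purified wild-type or mutant RbFox RRM.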
In the case of B1, the binding signal is 0.0551 KA relative to UGCAUGU.

On to B2, for which the binding signal is 0.0402 KA relative to UGCAUGU.

B3: the binding signal was 0.103 KA relative to UGCAUGU.

Turning to B4, the binding signal is 0.153 KA relative to UGCAUGU.

In the case of B5, the binding signal is 0.0651 KA relative to UGCAUGU.

For B6, the binding signal was 0.0878 KA relative to UGCAUGU.

Turning to B7, the binding signal is 0.0956 KA relative to UGCAUGU.

B8: the binding signal was 0.188 KA relative to UGCAUGU.

For B9, the binding signal is 0.0952 KA relative to UGCAUGU.

For the molecule B10, the binding signal was 0.0937 KA relative to UGCAUGU.

Consider B11, for which the binding signal is 0.114 KA relative to UGCAUGU.

B12: the binding signal was 0.14 KA relative to UGCAUGU.

On to B13, for which the binding signal was 0.13 KA relative to UGCAUGU.

On to B14, for which the binding signal was 0.0343 KA relative to UGCAUGU.

Consider B15, for which the binding signal is 0.143 KA relative to UGCAUGU.

On to B16, for which the binding signal was 0.0621 KA relative to UGCAUGU.

Take B17: the binding signal was 0.0719 KA relative to UGCAUGU.

As to B18, the binding signal was 0.0808 KA relative to UGCAUGU.

Take B19: the binding signal was 0.0995 KA relative to UGCAUGU.

For B20, the binding signal is 0.07 KA relative to UGCAUGU.

Consider B21, for which the binding signal is 0.096 KA relative to UGCAUGU.

For B22, the binding signal was 0.0869 KA relative to UGCAUGU.

Take B23: the binding signal is 0.069 KA relative to UGCAUGU.

B24: the binding signal is 0.0848 KA relative to UGCAUGU.

For the molecule B25, the binding signal is 0.133 KA relative to UGCAUGU.

For the molecule B26, the binding signal was 0.0774 KA relative to UGCAUGU.

B27: the binding signal was 0.0875 KA relative to UGCAUGU.

Consider B28, for which the binding signal was 0.125 KA relative to UGCAUGU.

Take B29: the binding signal is 0.139 KA relative to UGCAUGU.

As for B30, the binding signal was 0.0805 KA relative to UGCAUGU.

With B31, the binding signal is 0.0798 KA relative to UGCAUGU.
